Experimental data reported in PubChem BioAssay AID938 (National Center for Advancing Translational Sciences (NCATS), 2007).
Hit rate of the full screen: of about 73,000 compounds, about 1,800 (2.5%) were called active. Another 13% or so got no clear call; they are omitted. Calls come from the whole dose curve; as a rule, active = well fitted activation curve with a large enough effect; inconclusive = small, poorly fitted or top-dose-only effect; inactive = no such curve, though single readings can be large or run the other way. Only a part is listed here, and it is no random draw.

Assay: qHTS Assay for Agonists of the Thyroid Stimulating Hormone Receptor: Activators of Intracellular cAMP Concentrations in Parental HEK 293; note: nearly all actives have a fitted effect of over 55% in size; for activation: % of control where 0% means no effect
Details: parental HEK293 CNG cAMP sensor, membrane potential fluorescence; series mostly up to 57.1 µM; activation: at the top concentration
Outline: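 Parental HEK 293 cells stably expressing a cAMP-gated CNG channel were loaded with membrane potential dye containing 100 uM RO 20-1724 for 60 min. Compound added for 30 min; depolarization read as fluorescence intensity at 590 nm.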
Potency is the fitted concentration of half-maximal effect.

Structure (SMILES)	Potency	activation
CC(=O)c1sc(NC(=O)C2(F)C(F)(F)C(F)(F)C(F)(F)C(F)(F)C2(F)F)nc1C	active: 12.6 µM	–
c1ccc2c3c([nH]c2c1)-c1[nH]ncc1CC3	–	inactive: -31.5%
O=C1N(CN2CCC3(CC2)OCCO3)c2ccccc2C12OCCCO2	–	inactive: 10.8%
O=C(COc1ccc2c(c1)CCC2)N1CCc2ccccc21	active: 25.1 µM	–
COc1cc(C2CC(=O)NC3=C2C(=O)CC(C)(C)C3)ccc1O (stereo unspecified)	–	inactive: -42.2%
CCCCN1CCC(CCC(=O)c2cc(Cl)c(N)cc2OC)CC1	–	inactive: -31.9%
CN1CCN(c2nc3cc(C(F)(F)F)ccc3n3cccc23)CC1	–	inactive: 15.2%
O=C(O)c1ccc(O)cc1O	–	inactive: 2.78%
Cc1ccc(Cl)cc1N1CCN(C(=O)C2CCC(=O)N2C(C)C)CC1 (stereo unspecified)	–	inactive: -37.2%
COc1cccc(Cn2c(=O)c(CCc3ccccc3)nc3cnc(OC)nc32)c1	active: 15.8 µM	–
Cn1c(=O)c2c(nc(N3CCCCCC3)n2Cc2cccc3ccccc23)n(C)c1=O	–	inactive: -38.5%
Nc1nc(Nc2cccc(F)c2)nc2ccccc12	–	inactive: -51.8%
CNc1cc(-c2c(C)noc2C)ncn1	active: 3.98 µM	–
N[C@H](C(=O)O)c1cc(O)cc(O)c1	inactive	–
Cc1cc(=O)n(CCc2ccccc2)c(O)c1C#N	–	inactive: 14.6%
CCCC[C@H]1C[C@@H]1[C@@H]1N(C(C)=O)[C@H](c2cccc(OC)c2)CC12CC2	active: 20 µM	–
COc1ccc(-n2nc(C(=O)Nc3ccc4c(c3)OCO4)c3c4ccccc4n(C)c3c2=O)cc1	active: 15.8 µM	–
O=C(CN(C1CC1)S(=O)(=O)c1ccc(S(=O)(=O)NC2CCCCC2)cc1)Nc1ccccc1	–	inactive: -33.6%
CCc1cccc2c3c([nH]c12)[C@@](CC)(CC(=O)O)OCC3	–	inactive: -0.99% [at 25.6 µM]
COc1cc(NC(=O)Nc2ccccc2)c(OC)cc1NC(=O)CN1CCCCC1	–	inactive: -43.8%
O=C(O)C1=CCCNC1	inactive	–
COC(=O)CSc1nnc(-c2ccc(S(=O)(=O)N3CCC(C)CC3)cc2)o1	–	inactive: -31.4%

Structure (SMILES)	Potency	activation
CO/N=C(\C(=O)N[C@@H]1C(=O)N2C(C(=O)O)=C(COC(N)=O)CS[C@H]12)c1ccco1	–	inactive: -19.7%
Nc1ccc(S(=O)(=O)Nc2ccnn2-c2ccccc2)cc1	–	inactive: -2.81% [at 25.6 µM]
OB(O)c1ccc(Cl)s1	–	inactive: 5.69%
Cc1ccccc1C#N	–	inactive: 13.1%
Cc1ccc(NC(=O)NC2=N/C(=C(/C#N)C(=O)N3CCCC3)c3ccccc32)cc1	–	inactive: -42.4%
CC1=C(/C=C/C(C)=C/C=C/C(C)=C\C=O)C(C)(C)CCC1	–	inactive: -24.4%
O=C(NCc1nc2ccccc2[nH]1)[C@H]1C[C@@H]1[C@H](NP(=O)(c1ccccc1)c1ccccc1)c1ccccc1	active: 12.6 µM	–
CC(C)(C)NC(=O)NC(=O)COc1ccccn1	active: 10 µM	–
COc1cccc(N(C(=O)c2cccs2)c2nc3ccccc3s2)c1	active: 12.6 µM	–
C[C@@H]1C=C[C@](Cc2ccccc2)(C(=O)NCCCNc2ncc(C(F)(F)F)cc2Cl)N1C(=O)c1ccccc1	active: 25.1 µM	–
CC(=O)c1ccc(NC(=O)CSc2nnc(Cn3c(=O)sc4ccccc43)n2C)cc1	–	inactive: -32%
CCNc1ncc2nc(-c3cn(C)c4ccccc34)c(=O)n(-c3ccc(OC)cc3)c2n1	–	inactive: 25%
Cc1oc(-c2nc3ccccc3n2C)cc1C(=O)c1ccccc1	active: 25.1 µM	–
Cn1c(N)c(S(=O)(=O)c2ccc(Br)cc2)c2nc3ccccc3nc21	–	inactive: -30.3%
Cc1ccccc1C=O	–	inactive: -22.9%
CCCC[C@@H]1C[C@H]1C(NC(=O)c1ccco1)c1ccccc1 (stereo partly specified)	active: 15.8 µM	–
COc1ccc2nc(SCC(=O)N(C)C3CCCCC3)c(C#N)cc2c1	active: 25.1 µM	–
NS(=O)(=O)c1ccc(CNC(=O)c2ccc(Br)o2)cc1	–	inactive: 5.22%
CCOC(=O)c1ccc(Oc2nc(SC)nc(N(C)C)n2)cc1	active: 3.16 µM	–
COc1cc2c(cc1C(F)(F)F)N(C(=O)Nc1cc(F)cc(-c3cccnc3)c1)CC2	inactive	–
N#Cc1ccccc1S(=O)(=O)N1CCN(c2ccc(S(=O)(=O)N3CCOCC3)cn2)CC1	–	inactive: -10.9%
N#CC(C#N)=c1ccc2c(c1)NC1(CCCCC1)N=2	–	inactive: -65.4%

Structure (SMILES)	Potency	activation
O=c1c2cnn(-c3ccccc3)c2nc(-c2ccco2)n1-c1ccccc1	active: 20 µM	–
COCCOC(=O)C(C#N)c1nc2ccccc2nc1N1CCN(Cc2ccccc2)CC1 (stereo unspecified)	–	inactive: -51.8%
CC1=CCC2CC1C2(C)C (stereo unspecified)	–	inactive: -2.84%
CN1CCN(CCCN2c3ccccc3Sc3ccc(Cl)cc32)CC1	–	inactive: 2.52% [at 25.6 µM]
CCOC(=O)c1oc2ccccc2c1NC(=O)C1CCCCC1	active: 15.8 µM	–
COc1ccc2nc(Nc3ccc4c(c3)OCO4)sc2c1	–	inactive: -3.84%
CCn1c(SCC(=O)c2ccc(OC)cc2)nnc1C(C)NC(=O)c1ccc(OC)cc1 (stereo unspecified)	–	inactive: 0.0088%
COCCCn1c(=N)c(C(=O)NCc2ccc3c(c2)OCO3)cc2c(=O)n3ccccc3nc21	–	inactive: -74.4%
Oc1ccc(Nc2nc(N3CCCC3)c3ccccc3n2)cc1	–	inactive: -52.9%
C[C@@H](C(=O)N[C@@H](CO)Cc1ccccc1)[C@@H]1C[C@@]1(C)[C@@H](NC(=O)OCc1ccccc1)c1ccccc1	–	inactive: -1.91%
Cc1nc(SCC(=O)NCc2ccco2)c2c3c(sc2n1)CCCC3	active: 12.6 µM	–
COC(=O)c1[nH]c2cc(OC)c(OC)cc2c1NC(=O)c1cccc(OC)c1	–	inactive: -32.2%
COCCNC(=O)[C@H](C)[C@@H]1C[C@@]1(C)[C@@H](NC(=O)OCc1ccccc1)c1ccccc1	–	inactive: 4.69%
Nc1ccn([C@@H]2CC[C@H](CO)O2)c(=O)n1	–	inactive: 1.02% [at 25.6 µM]
Cc1c(N=Cc2nc3ccccc3[nH]2)c(=O)n(-c2ccccc2)n1C	–	inactive: -5%
O=C1CCc2cc(S(=O)(=O)N3CCC(C(=O)NC4CCCc5ccccc54)CC3)ccc2N1 (stereo unspecified)	–	inactive: -62%
Nc1ccc(S(=O)(=O)c2ccc(N)cc2)cc1	inactive	–
CCC1Oc2ccc(C)cc2N(CC(=O)NCCC2=CCCCC2)C1=O (stereo unspecified)	active: 6.31 µM	–
O=C(O)[C@H]1C[C@H](C(=O)O)N1	–	inactive: 13.4%
OCCN1CCN(CCCN2c3ccccc3Sc3ccc(Cl)cc32)CC1	–	inactive: -4.14%
COC(=O)C1=C(N)OC2=C(C(=O)CC(C)(C)C2)C1c1cccs1 (stereo unspecified)	active: 3.16 µM	–
Cc1cccc(OCc2nnc(SCc3cc(=O)n4cc(Br)ccc4n3)o2)c1	active: 12.6 µM	–
